Test results as given in the supplement of paper PMC4604168 (melanoma cell lines).
This is one part of the list. Most values come without repeats; read them as rough.

Experiments:
Assay in all cases: cell count relative to DMSO control; melanoma cells; higher = more viable cells
Settings in all cases: library dose: standard library concentration; 72 h
G361 = tested on: G361
IPC-298 = tested on: IPC-298
IST-MEL1 = tested on: IST-MEL1
LB2518-MEL = tested on: LB2518-MEL
LOXIMVI = tested on: LOXIMVI
MEL-HO = tested on: MEL-HO
MZ2-MEL = tested on: MZ2-MEL
MeWo = tested on: MeWo
RPMI7951 = tested on: RPMI7951
RVH-421 = tested on: RVH-421
SkMel28 = tested on: SkMel28
SkMel2 = tested on: SkMel2
SkMel30 = tested on: SkMel30
SkMel5 = tested on: SkMel5
UACC257 = tested on: UACC257
UACC62 = tested on: UACC62
WM115 = tested on: WM115
WM1716 = tested on: WM1716
WM3526 = tested on: WM3526
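Also: cells treated in 1,536-well plates, then fixed and DAPI-stained, with nuclei counted from automated high-throughput microscope images.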

SMILES	cell count (G361)	cell count (IPC-298)	cell count (IST-MEL1)	cell count (LB2518-MEL)	cell count (LOXIMVI)	cell count (MEL-HO)	cell count (MZ2-MEL)	cell count (MeWo)	cell count (RPMI7951)	cell count (RVH-421)	cell count (SkMel28)	cell count (SkMel2)	cell count (SkMel30)	cell count (SkMel5)	cell count (UACC257)	cell count (UACC62)	cell count (WM115)	cell count (WM1716)	cell count (WM3526)
C[C@@H](Oc1cc(-c2cnn(C3CCNCC3)c2)cnc1N)c1c(Cl)ccc(F)c1Cl [Crizotinib] + COc1ccc2c(c1)CCC1C2CCC2(C)C(NCCCCCCN3C(=O)C=CC3=O)CCC12 [U73122] (first compound 1 µM, partner dose 2 µM)	92.7%	110%	101%	112%	95.6%	115%	103%	84.8%	72.6%	112%	124%	87.1%	115%	93.1%	77.7%	77.7%	125%	86.4%	86.4%
C=CCNC1=C2C[C@@H](C)C[C@H](OC)[C@H](O)[C@@H](C)/C=C(\C)[C@H](OC(N)=O)[C@@H](OC)/C=C\C=C(/C)C(=O)NC(=CC1=O)C2=O [Tanespimycin] + O=c1cc(-c2cccc3c2Sc2ccccc2S3)oc(N2CCOCC2)c1 [KU55933] (first compound 0.01 µM, partner dose 5 µM)	58.9%	86.9%	52%	94.4%	112%	92.5%	103%	75%	24.1%	128%	59.7%	71.9%	117%	84.3%	111%	47.7%	23.4%	84.9%	67.3%
CN1CCN(c2ccc3nc(-c4c(N)c5c(F)cccc5[nH]c4=O)[nH]c3c2)CC1 [Dovitinib] + COc1ccc(COc2ccc(Cc3cnc(N)nc3N)cc2OC)cc1 [GW2580] (first compound 0.5 µM, partner dose 5 µM)	59.5%	77.8%	76.8%	53.9%	93.7%	65.9%	49.5%	46.1%	75.1%	83.4%	56.2%	53.3%	86.2%	53.2%	66.3%	68.6%	59.1%	103%	78%
C[C@@H](Oc1cc(-c2cnn(C3CCNCC3)c2)cnc1N)c1c(Cl)ccc(F)c1Cl [Crizotinib] + Oc1cc(-c2nc(-c3ccccc3)[nH]c2-c2ccncc2)ccc1Cl [L779450] (first compound 1 µM, partner dose 1 µM)	54.3%	75.2%	85.2%	72.8%	96.1%	69.1%	77.7%	63.8%	80.6%	57.1%	33%	17.4%	86.2%	55.7%	77%	60.1%	33.8%	60.6%	46.9%
CN1CCN(c2ccc3nc(-c4c(N)c5c(F)cccc5[nH]c4=O)[nH]c3c2)CC1 [Dovitinib] + O=c1cc(-c2cccc3c2Sc2ccccc2S3)oc(N2CCOCC2)c1 [KU55933] (first compound 0.5 µM, partner dose 5 µM)	41.8%	82.9%	84.3%	63%	92.5%	85.4%	81%	47.6%	75.1%	86.8%	35.2%	73.4%	96.5%	53.2%	90.8%	65.5%	89.2%	80.9%	80.4%
CNC(=O)c1cc(Oc2ccc(NC(=O)Nc3ccc(Cl)c(C(F)(F)F)c3)cc2)ccn1 [sorafenib] + O=C(O)C(=O)Nc1sc2c(c1C(=O)O)CCNC2 [TCS401] (first compound 2 µM, partner dose 8.33333 µM)	95.3%	81.4%	101%	93.7%	118%	92.2%	91.6%	76.6%	86.9%	150%	87.6%	89.8%	106%	72.8%	93.3%	101%	84.6%	61%	73.4%
CN1CCN(c2ccc3nc(-c4c(N)c5c(F)cccc5[nH]c4=O)[nH]c3c2)CC1 [Dovitinib] + COc1ccc(-c2ccc3c(N4CCOCC4)nc(N4C[C@@H](C)O[C@@H](C)C4)nc3n2)cc1CO [KU0063794] (first compound 0.5 µM, partner dose 0.1 µM)	79.1%	62.9%	102%	63.8%	88%	74.1%	76.1%	81.5%	99.5%	82.7%	62.4%	89.9%	85.8%	70.3%	102%	95.2%	73.9%	94%	80.1%
C=CCNC1=C2C[C@@H](C)C[C@H](OC)[C@H](O)[C@@H](C)/C=C(\C)[C@H](OC(N)=O)[C@@H](OC)/C=C\C=C(/C)C(=O)NC(=CC1=O)C2=O [Tanespimycin] + O=C(O)C(=O)Nc1sc2c(c1C(=O)O)CCNC2 [TCS401] (first compound 0.01 µM, partner dose 8.33333 µM)	69.2%	85%	60.1%	75.7%	90.7%	80.6%	118%	80.7%	28.3%	80.2%	52.2%	106%	127%	85.5%	88.9%	85.1%	24.6%	73.2%	67.2%
